Paper PMC12040169 (PLOS Biology, 2025)
Some of the results follow.

These compounds were tested on T1, C. trachomatis L2/434/Bu expressing GFP (CTL2-GFP). Conditions: total inclusion area; 28.5 h, 10 µM; inhibitor.
T1 construct: L2/434/Bu GFP intracellular growth in HeLa cells
Parameters: species or system HeLa; C. trachomatis total inclusion area by high-content imaging, normalised to DMSO
Method in brief: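 High-content images of fixed, Hoechst-stained infected cultures supply inclusion area and count (growth) plus nuclei number (viability), complementing bulk GFP/resorufin fluorescence. MIC determination is unchanged from the primary assay.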

Compared with `N=C(N/N=C\c1ccncc1)N/N=C\c1ccncc1` [CBK263278C], `O=C(Cn1ccc2ccnc(-c3cccs3)c21)NCc1ccccn1` [CBK284735] is higher in “% of control remaining” value: 99.1 for the first, 106.051 for the second.

First: COCCn1c(SCc2cn3c(C)cccc3n2)nc(C)c1C [CBK304050]
Second: CCOC(=O)c1c(NC(=O)c2nc3ncccn3n2)sc(C)c1C [CBK267630]
The “% of control remaining” value of the first is lower: 100.026 for the first, 114.263 for the second.

Compared with `O=C(CN1CCN(c2ccc(C(F)(F)F)cn2)CC1)c1ccccc1` [CBK074699], `O=C(O)c1ccc(C2(c3ccc(C(=O)O)cc3)OC(=O)c3ccccc32)cc1` [CBK261150] is higher in “% of control remaining” value: 56.204 for the first, 89.1321 for the second.

Going from `CN(C)CCN(C)c1cccc(-c2cccc(OC(F)(F)F)c2)n1` [CBK037020] to `CCc1ccc(OCC(=O)Nc2cccnc2)cc1` [CBK264658], the “% of control remaining” value falls from 125.172 to 114.216.

Going from `Cc1cn2cccc(C(=O)N3CCCCC3CCN3CCOCC3)c2n1` (stereo not drawn) [CBK306518] to `Cc1ccc2nc(Cl)c(/C=N/NC(=O)CN3CCOCC3)cc2c1` [CBK262731], the “% of control remaining” value falls from 73.9752 to 73.8354.

Going from `Cc1noc(C)c1C(=O)N1CC[C@H]2NC(=O)c3ccccc3OCC/C=C/C[C@H]2C1` [CBK291994] to `O=C(CNC(=O)C1CCCCC1)NNC(=O)c1sc2ccccc2c1Cl` [CBK267903], the “% of control remaining” value rises from 79.8062 to 114.864.

Compared with `Cn1c(=O)n(C)c2cc(S(=O)(=O)ON3C(=O)c4cccc5cc([N+](=O)[O-])cc(c45)C3=O)ccc21` [CBK267566], `Cn1cnnc1Sc1cc(N2CCN(S(=O)(=O)c3ccc(Cl)c(Cl)c3)CC2)ccc1[N+](=O)[O-]` [CBK266618] is higher in “% of control remaining” value: 101.416 for the first, 103.211 for the second.

First: COc1cccc2c1OC(c1cccnc1)N1N=C(c3cccc(O)c3)CC21 (stereo not drawn) [CBK287747]
Second: N#Cc1c(Cl)cccc1Oc1ccc(S(=O)(=O)Nc2cccc(C(=O)O)c2)cc1 [CBK155718]
The “% of control remaining” value of the first is lower: 78.2501 for the first, 94.0721 for the second.

First: Cc1nc(CNC(=O)NC2CCCN(c3ccn(C)n3)C2=O)c(C)s1 (stereo not drawn) [CBK305926]
Second: Cc1ccc(CNC(=O)Cn2nnc(-c3ccc(CN4CCC(S(C)(=O)=O)C4)cc3)n2)cc1 (stereo not drawn) [CBK155407T]
The “% of control remaining” value of the first is lower: 53.4391 for the first, 83.6275 for the second.

Compared with `O=C1N(Cc2ccc(Br)cc2)CCc2cncn21` [CBK021187], `CN(Cc1ccccc1)C(=O)CCNS(=O)(=O)c1ccccc1` [CBK268585] is higher in “% of control remaining” value: 94.454 for the first, 100.402 for the second.

`O=C(Nc1cncc(N2CCNCC2)n1)c1coc2c1C(=O)CCC2` [CBK004229T] was tested, and the “% of control remaining” value was 97.629.
